System: CD4^+ T cells and CD8^+ T cells in whole blood
Experiment: T cell activation in whole blood
Type: cell-based
Details: 24 h, absence of FolR1 expressing tumor cells
Description: FIGS. 9A-D depict graphs summarizing activation marker upregulation in whole blood.
DP47 TCB was included as negative control.

B1: Mov19 FolR1 TCB: reference FolR1/CD3 T-cell bispecific with Mov19 binder (antibody)
heavy 1: QVQLQQSGAELVKPGASVKISCKASGYSFTGYFMNWVKQSHGKSLEWIGRIHPYDGDTFYNQNFKDKATLTVDKSSNTAHMELLSLTSEDFAVYYCTRYDGSRAMDYWGQGTTVTVSSASTKGPSVFPLAPSSKSTSGGTAALGCLVKDYFPEPVTVSWNSGALTSGVHTFPAVLQSSGLYSLSSVVTVPSSSLGTQTYICNVNHKPSNTKVDKKVEPKSCDGGGGSGGGGSEVQLVESGGGLVQPKGSLKLSCAASGFTFNTYAMNWVRQAPGKGLEWVARIRSKYNNYATYYADSVKDRFTISRDDSQSILYLQMNNLKTEDTAMYYCVRHGNFGNSYVSWFAYWGQGTLVTVSAASVAAPSVFIFPPSDEQLKSGTASVVCLLNNFYPREAKVQWKVDNALQSGNSQESVTEQDSKDSTYSLSSTLTLSKADYEKHKVYACEVTHQGLSSPVTKSFNRGE[in this place human IgG1 Fc with changes]
heavy 2: QVQLQQSGAELVKPGASVKISCKASGYSFTGYFMNWVKQSHGKSLEWIGRIHPYDGDTFYNQNFKDKATLTVDKSSNTAHMELLSLTSEDFAVYYCTRYDGSRAMDYWGQGTTVTVSSASTKGPSVFPLAPSSKSTSGGTAALGCLVKDYFPEPVTVSWNSGALTSGVHTFPAVLQSSGLYSLSSVVTVPSSSLGTQTYICNVNHKPSNTKVDKKVEPKSCDKTHTCPPCPAPEAAGGPSVFLFPPKPKDTLMISRTPEVTCVVVDVSHEDPEVKFNWYVDGVEVHNAKTKPREEQYNSTYRVVSVLTVLHQDWLNGKEYKCKVSNKALGAPIEKTISKAKGQPREPQVCTLPPSRDELTKNQVSLSCAVKGFYPSDIAVEWESNGQPENNYKTTPPVLDSDGSFFLVSKLTVDKSRWQQGNVFSCSVMHEALHNHYTQKSLSLSPGK
light: DIELTQSPASLAVSLGQRAIISCKASQSVSFAGTSLMHWYHQKPGQQPKLLIYRASNLEAGVPTRFSGSGSKTDFTLNIHPVEEEDAATYYCQQSREYPYTFGGGTKLEIKRTVAAPSVFIFPPSDEQLKSGTASVVCLLNNFYPREAKVQWKVDNALQSGNSQESVTEQDSKDSTYSLSSTLTLSKADYEKHKVYACEVTHQGLSSPVTKSFNRGEC
modifications: left off: another chain or arm of the molecule; small tags and cut ends
upregulation of CD25 and CD69 on CD4^+ and CD8^+ T cells in whole blood: No activation of T cells
